Measurements published in patent US20250296996A1, “ANGIOPOIETIN-RELATED PROTEIN 7-SPECIFIC ANTIBODIES AND USES THEREOF” (Broadwing Bio, Inc., priority 2022, published 2025).

B1: ATX-P-428 (antibody)
heavy: QVQLVQSGAEVKKPGASVKVSCKASGYTFSSYGISWVRQAPGQGLEWMGWISAYNGNTNYAQNLRGRVAMTTDTSTTTAYMELRSLRSDDTAVYYCARVSLVWFGELPRGFDYWGQGTLVTVSSASTKGPSVFPLAPSSKSTSGGTAALGCLVKDYFPEPVTVSWNSGALTSGVHTFPAVLQSSGLYSLSSVVTVPSSSLGTQTYICNVNHKPSNTKVDKRV[in this place human IgG1 Fc with changes]
light: [in this place about 200 residues]
B2: ATX-P-429: human anti-ANGPTL7 monoclonal antibody; HCDR1-3 SEQ ID NOs 3, 9, 14; LCDR1-3 SEQ ID NOs 123, 129, 135 (antibody)
heavy: QVQLVQSGAEVKKPGASVKVSCKASGYTFSSYGISWVRQAPGQGLEWMGWISAYNGNTNYAQNLRGRVAMTTDTSTTTAYMELRSLRSDDTAVYYCARVSLVWFGELPRGFDYWGQGTLVTVSSASTKGPSVFPLAPSSKSTSGGTAALGCLVKDYFPEPVTVSWNSGALTSGVHTFPAVLQSSGLYSLSSVVTVPSSSLGTQTYICNVNHKPSNTKVDKRV[in this place human IgG1 Fc with changes]
light: [in this place about 100 residues]YCMQTLQTPYTFGQGTKLEIKRTVAAPSVFIFPPSDEQLKSGTASVVCLLNNFYPREAKVQWKVDNALQSGNSQESVTEQDSKDSTYSLSSTLTLSKADYEKHKVYACEVTHQGLSSPVTKSFNRGEC
B3: ATX-P-432 (antibody)
heavy: QVQLVQSGAEVKKPGASVKVSCKASGYTFTDYYIHWVRQAPGPGLEWLGWINPNTGATKYAQKFQGRVTMTRDTSISTAYMELSRLRSDDTAVYYCAREDNGNYGDVFDIWGQGTMVTVSSASTKGPSVFPLAPSSKSTSGGTAALGCLVKDYFPEPVTVSWNSGALTSGVHTFPAVLQSSGLYSLSSVVTVPSSSLGTQTYICNVNHKPSNTKVDKRV[in this place human IgG1 Fc with changes]
light: [in this place about 200 residues]
B4: ATX-P-440: human anti-ANGPTL7 monoclonal antibody; HCDR1-3 SEQ ID NOs 33, 49, 64; LCDR1-3 SEQ ID NOs 93, 105, 117 (antibody)
heavy: EVQLVESGGGVVRPGGSLRLSCAASGFTFDDYGMSWVRQAPGKGLEWVSTINWNGGNTGYADSVKGRFTISRDNAKNSLYLQMNSLRAEDTALYYCARDEGAAGLGYYFDYWGQGTLVTVSSASTKGPSVFPLAPSSKSTSGGTAALGCLVKDYFPEPVTVSWNSGALTSGVHTFPAVLQSSGLYSLSSVVTVPSSSLGTQTYICNVNHKPSNTKVDKRV[in this place human IgG1 Fc with changes]
light: DIQMTQSPSTLSASVGDRVTITCRASQSISSWLAWYQQKPGKAPKLLIYATSSLQSGVPSRFSGSGSGTDFTLTISSLQPEDFATYYCQQSYSTPITFGQGTRLEIKRTVAAPSVFIFPPSDEQLKSGTASVVCLLNNFYPREAKVQWKVDNALQSGNSQESVTEQDSKDSTYSLSSTLTLSKADYEKHKVYACEVTHQGLSSPVTKSFNRGEC
B5: ATX-P-427 (antibody)
heavy: EVQLVESGGGVVRPGGSLRLSCAASGFSFDDYGMSWVRQVPGKGLEWVSGINWNGGSTGYADSVKGRFTISRDNAKNSLYLQMSSLRAEDTALYYCASYSGSFRDAFDIWGQGTMVTVSSASTKGPSVFPLAPSSKSTSGGTAALGCLVKDYFPEPVTVSWNSGALTSGVHTFPAVLQSSGLYSLSSVVTVPSSSLGTQTYICNVNHKPSNTKVDKRV[in this place human IgG1 Fc with changes]
light: AIQMTQSPSSLSASVGDRVTITCRASQGIRNDLGWYQQKPGKAPKLLIYAASSLQSGVPSRFSGSGSGTDFTLTISSLQPEDFATYYCLQDYNYPYTFGQGTKLEIKRTVAAPSVFIFPPSDEQLKSGTASVVCLLNNFYPREAKVQWKVDNALQSGNSQESVTEQDSKDSTYSLSSTLTLSKADYEKHKVYACEVTHQGLSSPVTKSFNRGEC

Target: T1, mouse ANGPTL7 protein (muANGPTL7-his, R&D Systems) (Mus musculus, UniProt Q8R1Q3)
T1 construct: His; purchased R&D Systems
T1 sequence (Q8R1Q3 22-337): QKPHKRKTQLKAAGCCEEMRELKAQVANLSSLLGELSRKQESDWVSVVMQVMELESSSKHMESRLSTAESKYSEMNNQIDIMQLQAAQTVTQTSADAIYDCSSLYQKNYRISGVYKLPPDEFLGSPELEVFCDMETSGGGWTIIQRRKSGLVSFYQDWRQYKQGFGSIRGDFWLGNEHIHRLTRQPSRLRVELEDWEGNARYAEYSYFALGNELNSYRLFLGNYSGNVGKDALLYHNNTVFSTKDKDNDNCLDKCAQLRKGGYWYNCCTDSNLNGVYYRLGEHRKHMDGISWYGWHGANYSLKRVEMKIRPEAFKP
Assay: Octet HTX binding kinetics to muANGPTL7-his
Details: monovalent KD, 1:1 model; muANGPTL7-his @ 200 nM
Experimental: (§1) Experiments were also conducted to determine the reactivity and dissociation constants (KD) of anti-ANGPTL7 antibodies with the mouse ANGPTL7 protein. Binding experiments were performed on Octet HTX (ForteBio) in 1×PBS, pH 7.4, 0.1 mg/mi BSA, 0.05% Sodium Azide, and 0.02% Tween 20. Antibodies at a concentration of 50 nM were loaded on pre-hydrated AHC biosensors for 5 mA. The loaded sensors were dipped into monovalent muANGPTL7-his (R&D Systems) at a concentration of 200 nM for 5 min of association, followed by 10 min of dissociation. Results were analyzed with ForteBio Data Analysis 11.1 and fit to a 1:1 binding model to determine the monovalent KD. Responses (nm) at the end of association were also determined (Table 5).

| Molecule | KD (M) |
| --- | --- |
| B1 | N.B. |
| B2 | N.B. |
| B3 | N.B. |

Test system: not listed separately
Assay: Differential scanning fluorimetry (Protein Thermal Shift assay), thermal stability
Format: physicochemical
Details: DSF, melt 25° C. to 95° C., triplicate; in °C (unit assumed)
Experimental: Human ANGPTL7 monoclonal antibody differential scanning fluorimetry (DSF). […] Among the many techniques used to study the stability of mAbs, differential scanning fluorimetry (DSF) offers both excellent throughput and minimal material consumption. DSF measures the temperature of the protein unfolding transition (Tm) based on the change in fluorescence intensity of an environmentally sensitive dye.
Experiments were conducted to assess the thermal stability of the human ANGPTL7 monoclonal antibodies (“ATX” antibodies) of the present disclosure by determining the melting temperature. Thermal stability was assessed via differential scanning fluorimetry (DSF) utilizing the Protein Thermal Shift (PTS) assay from Applied Biosystems. The assay was performed according to the manufacturer's instruction. Briefly, the antibody to be evaluated was prepared in triplicate by mixing with Protein Thermal Shift dye and buffer; a real-time melt experiment from 25° C. to 95° C. was run on QuantStudio 3. Data was analyzed by using Protein Thermal Shift Software and the melting temperature (Tm) was calculated from the melt curve (Table 1).

| Molecule | Tm 2 - Mean | Tm D - Mean |
| --- | --- | --- |
| B4 | 79.68 | 62.58 |
| B5 | 67.87 | 62.78 |
| B1 | 79.24 | 62.62 |
| B2 | 80.49 | 62.64 |
| B3 |  | 62.82 |

Test system: rabbit ANGPTL7 protein (P66, rabbit ANGPTL7-his)
Assay: Octet HTX binding kinetics to P66 (rabbit ANGPTL7-his)
Details: P66 @ 200 nM
Experimental: as §1, with “([…])” for “(KD)”, “rabbit” for “mouse”, “Rx PBS,” for “1×PBS,”, “min.” for “mA.”, “P66 (rabbit ANGPTL7-his)” for “muANGPTL7-his (R&D Systems)”, “6).” for “5).”

| Molecule | kdis(1/8) |
| --- | --- |
| B4 | 3.18E−04 1/8 |
| B5 | 1.33E−04 1/8 |
| B1 | N.B. |
| B2 | N.B. |
| B3 | N.B. |

Same assay, conditions: at end of association; P66 @ 200 nM

| Molecule | Response [nm] |
| --- | --- |
| B3 | 0.09 |

Same assay, conditions: monovalent KD, 1:1 model; P66 @ 200 nM

| Molecule | KD (M) |
| --- | --- |
| B1 | N.B. |
| B2 | N.B. |
| B3 | N.B. |
